Measured values from publication PMC10516938, “Conformational dynamics of cohesin/Scc2 loading complex are regulated by Smc3 acetylation and ATP binding” (Nature Communications, 2023).
These are yes or no findings as the source states them, for the method shown. In cells and extracts the contact can be indirect. Some results given as binding are weak or reduced against the parent protein; the word gives no strength.

T1: Smc3^QQ W483R R1008I S72C (S. cerevisiae) (UniProt P47037)
T1 sequence: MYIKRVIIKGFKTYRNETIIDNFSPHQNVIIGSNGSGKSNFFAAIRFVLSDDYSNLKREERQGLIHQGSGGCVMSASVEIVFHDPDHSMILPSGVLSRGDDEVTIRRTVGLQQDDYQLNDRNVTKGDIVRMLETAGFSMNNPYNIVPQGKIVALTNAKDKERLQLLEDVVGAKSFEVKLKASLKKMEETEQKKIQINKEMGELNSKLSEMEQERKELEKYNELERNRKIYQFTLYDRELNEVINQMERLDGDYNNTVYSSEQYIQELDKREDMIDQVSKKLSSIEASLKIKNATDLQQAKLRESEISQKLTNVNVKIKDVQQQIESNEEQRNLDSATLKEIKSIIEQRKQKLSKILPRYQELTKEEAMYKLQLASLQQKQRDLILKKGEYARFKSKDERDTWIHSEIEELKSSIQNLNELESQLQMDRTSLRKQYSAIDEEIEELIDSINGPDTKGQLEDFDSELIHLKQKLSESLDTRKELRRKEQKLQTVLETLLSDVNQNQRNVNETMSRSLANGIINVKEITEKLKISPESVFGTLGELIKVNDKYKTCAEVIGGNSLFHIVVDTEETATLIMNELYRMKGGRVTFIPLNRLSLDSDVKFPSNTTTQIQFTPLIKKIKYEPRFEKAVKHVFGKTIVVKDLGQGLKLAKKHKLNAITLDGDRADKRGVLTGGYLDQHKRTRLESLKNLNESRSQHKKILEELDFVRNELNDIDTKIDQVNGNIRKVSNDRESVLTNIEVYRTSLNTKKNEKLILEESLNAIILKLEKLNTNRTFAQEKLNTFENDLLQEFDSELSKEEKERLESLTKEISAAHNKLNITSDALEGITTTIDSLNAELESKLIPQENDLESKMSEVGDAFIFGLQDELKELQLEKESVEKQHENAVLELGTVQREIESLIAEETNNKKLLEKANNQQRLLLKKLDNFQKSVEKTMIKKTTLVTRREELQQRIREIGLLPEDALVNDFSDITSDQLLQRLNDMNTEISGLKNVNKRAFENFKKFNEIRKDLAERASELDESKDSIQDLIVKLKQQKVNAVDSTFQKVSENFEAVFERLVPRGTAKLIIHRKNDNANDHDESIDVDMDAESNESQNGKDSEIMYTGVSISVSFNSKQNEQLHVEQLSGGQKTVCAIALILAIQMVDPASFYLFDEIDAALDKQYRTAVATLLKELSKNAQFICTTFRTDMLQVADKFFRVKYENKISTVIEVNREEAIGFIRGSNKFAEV

T2: Smc1 E1102C (S. cerevisiae) (UniProt P32908)
T2 sequence: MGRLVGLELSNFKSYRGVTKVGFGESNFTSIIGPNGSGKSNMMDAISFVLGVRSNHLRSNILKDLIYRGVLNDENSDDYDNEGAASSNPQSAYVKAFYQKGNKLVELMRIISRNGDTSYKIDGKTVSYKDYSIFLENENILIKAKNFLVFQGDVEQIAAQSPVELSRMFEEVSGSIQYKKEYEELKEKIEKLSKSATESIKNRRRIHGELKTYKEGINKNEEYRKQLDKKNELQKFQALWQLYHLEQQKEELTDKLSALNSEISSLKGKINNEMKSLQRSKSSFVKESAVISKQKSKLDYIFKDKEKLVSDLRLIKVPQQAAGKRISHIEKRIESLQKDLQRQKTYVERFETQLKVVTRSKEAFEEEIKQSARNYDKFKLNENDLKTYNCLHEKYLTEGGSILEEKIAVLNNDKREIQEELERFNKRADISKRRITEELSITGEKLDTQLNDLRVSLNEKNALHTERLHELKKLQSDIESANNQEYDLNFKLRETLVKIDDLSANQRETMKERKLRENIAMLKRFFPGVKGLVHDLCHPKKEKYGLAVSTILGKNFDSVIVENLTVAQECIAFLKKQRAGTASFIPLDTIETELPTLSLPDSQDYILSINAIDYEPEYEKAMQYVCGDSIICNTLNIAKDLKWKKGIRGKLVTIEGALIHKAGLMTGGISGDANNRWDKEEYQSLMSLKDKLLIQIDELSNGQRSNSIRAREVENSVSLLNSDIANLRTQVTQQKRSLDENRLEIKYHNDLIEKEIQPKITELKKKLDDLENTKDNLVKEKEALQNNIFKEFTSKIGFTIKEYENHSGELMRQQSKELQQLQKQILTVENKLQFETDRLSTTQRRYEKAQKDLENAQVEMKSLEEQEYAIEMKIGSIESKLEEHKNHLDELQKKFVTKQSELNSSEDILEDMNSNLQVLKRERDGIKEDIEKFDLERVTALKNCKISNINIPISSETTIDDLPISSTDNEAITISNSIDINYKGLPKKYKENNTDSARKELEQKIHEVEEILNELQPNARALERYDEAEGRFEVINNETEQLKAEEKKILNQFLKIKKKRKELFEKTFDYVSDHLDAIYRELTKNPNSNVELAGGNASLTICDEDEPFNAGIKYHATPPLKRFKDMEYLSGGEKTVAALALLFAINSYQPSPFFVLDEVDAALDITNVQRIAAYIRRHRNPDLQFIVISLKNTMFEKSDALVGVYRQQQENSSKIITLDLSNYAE


Tests used:
[1] = target: T1, Smc3^QQ W483R R1008I S72C (S. cerevisiae); assay: cross-linking; in vivo BMOE cross-link of cysteine pairs in yeast cells arrested in late G1 by non-degradable Sic1(9m); Scc1-PK immunoprecipitated, western blot, band intensities quantified
[2] = target: T2, Smc1 E1102C (S. cerevisiae); assay: as above

Row | binding [1] | binding [2] | Binder
1 | binds |  | Scc2 E819C (natural protein, S. cerevisiae, UniProt Q04002 1-1493, looked up, Scc2, S. cerevisiae; source: S. cerevisiae W303, in vivo, whole-cell extract) MSYPGKDKNIPGRIIEALEDLPLSYLVPKDGLAALVNAPMRVSLPFDKTIFTSADDGRDVNINVLGTANSTTSSIKNEAEKERLVFKRPSNFTSSANSVDYVPTNFLEGLSPLAQSVLSTHKGLNDSINIEKKSEIVSRPEAKHKLESVTSNAGNLSFNDNSSNKKTKTSTGVTMTQANLAEQYLNDLKNILDIVGFDQNSAEIGNIEYWLQLPNKKFVLTTNCLTKLQMTIKNITDNPQLSNSIEITWLLRLLDVMVCNIKFSKSSLKMGLDDSMLRYIALLSTIVLFNIFLLGKNDSNLHRESYIMEPVNFLSDLIESLKILTIEYGSLKIEFDTFQEALELLPKYIRNGPFLDDNVTAKLVYIFSDLLMNNDIEATTNIQFQSFWDNVKRISSDILVSLFGSFDQQRGFIIEELLSHIEKLPTKRIQKKLRKVGNQNIYITDFTFTLMSMLENINCYSFCNQMKDIAPENIDLLKNEYKKQEEFLFNIVEHINDTILERFFKNPSALRYVIDNFVQDLLLLISSPQWPVTEKILSSLLKRLLSVYSPSMQVSANIETICLQLIGNIGSTIFDIKCSTRDHEDNNLIKMINYPETLPHFFKSFEECIAYNETIKCRRSATRFLWNLRLGTILILEEYTKDAKEQIITVDNELKKILEQIKDGGLGPELENREADFSTIKLDYFSILHAFELLNLYDPYLKLILSLLAKDKIKLRSTAIKCLSMLASKDKVILSNPMVKETIHRRLNDSSASVKDAILDLVSINSSYFEFYQQINNNYNDDSIMVRKHVLRINEKMYDETNDIVTKVYVIARILMKICDEEDNIIDMARLILLNRWILKVHEVLDQPEKLKEISSSVLLVMSRVAIMNEKCSQLFDLFLNFYLLNKEAHSKEAYDKITHVLTILTDFLVQKIVELNSDDTNEKNSIVDKQNFLNLLAKFADSTVSFLTKDHITALYPYMVSDEKSDFHYYILQVFRCTFEKLANFKQKFLYDLETTLLSRLPKMNVREIDEAMPLIWSVATHRHDTARVAKACSSCLSHLHPYINKANNEEAAIVVDGKLQRLIYLSTGFARFCFPKPSNDKIAFLQEGETLYEHITKCLLVLSKDKITHVIRRVAVKNLTKLCGNHPKLFNSRHVLHLLDKEFQSDQLDIKLVILESLYDLFLLEERKSVRNTGVNSTLSSNSILKKKLLKTNRVEFANDGVCSALATRFLDNILQLCLLRDLKNSLVAIRLLKLILKFGYTNPSHSIPTVIALFASTSQYIRHVAYELLEDLFEKYETLVFSSLSRGVTKAIHYSIHTDEKYYYKHDHFLSLLEKLCGTGKKNGPKFFKVLKRIMQSYLDDITDLTSTNSSVQKSIFVLCTNISNITFVSQYDLVSLLKTIDLTTDRLKEVIMDEIGDNVSSLSVSEEKLSGIILIQLSLQDLGTYLLHLYGLRDDVLLLDIVEESELKNKQLPAKKPDISKFSAQLENIEQYSSNGKLLTYFRKHVKDT
2 |  | binds | Scc2 T1281C (protein, UniProt Q04002 1-1493) MSYPGKDKNIPGRIIEALEDLPLSYLVPKDGLAALVNAPMRVSLPFDKTIFTSADDGRDVNINVLGTANSTTSSIKNEAEKERLVFKRPSNFTSSANSVDYVPTNFLEGLSPLAQSVLSTHKGLNDSINIEKKSEIVSRPEAKHKLESVTSNAGNLSFNDNSSNKKTKTSTGVTMTQANLAEQYLNDLKNILDIVGFDQNSAEIGNIEYWLQLPNKKFVLTTNCLTKLQMTIKNITDNPQLSNSIEITWLLRLLDVMVCNIKFSKSSLKMGLDDSMLRYIALLSTIVLFNIFLLGKNDSNLHRESYIMEPVNFLSDLIESLKILTIEYGSLKIEFDTFQEALELLPKYIRNGPFLDDNVTAKLVYIFSDLLMNNDIEATTNIQFQSFWDNVKRISSDILVSLFGSFDQQRGFIIEELLSHIEKLPTKRIQKKLRKVGNQNIYITDFTFTLMSMLENINCYSFCNQMKDIAPENIDLLKNEYKKQEEFLFNIVEHINDTILERFFKNPSALRYVIDNFVQDLLLLISSPQWPVTEKILSSLLKRLLSVYSPSMQVSANIETICLQLIGNIGSTIFDIKCSTRDHEDNNLIKMINYPETLPHFFKSFEECIAYNETIKCRRSATRFLWNLRLGTILILEEYTKDAKEQIITVDNELKKILEQIKDGGLGPELENREADFSTIKLDYFSILHAFELLNLYDPYLKLILSLLAKDKIKLRSTAIKCLSMLASKDKVILSNPMVKETIHRRLNDSSASVKDAILDLVSINSSYFEFYQQINNNYNDDSIMVRKHVLRINEKMYDETNDIVTKVYVIARILMKIEDEEDNIIDMARLILLNRWILKVHEVLDQPEKLKEISSSVLLVMSRVAIMNEKCSQLFDLFLNFYLLNKEAHSKEAYDKITHVLTILTDFLVQKIVELNSDDTNEKNSIVDKQNFLNLLAKFADSTVSFLTKDHITALYPYMVSDEKSDFHYYILQVFRCTFEKLANFKQKFLYDLETTLLSRLPKMNVREIDEAMPLIWSVATHRHDTARVAKACSSCLSHLHPYINKANNEEAAIVVDGKLQRLIYLSTGFARFCFPKPSNDKIAFLQEGETLYEHITKCLLVLSKDKITHVIRRVAVKNLTKLCGNHPKLFNSRHVLHLLDKEFQSDQLDIKLVILESLYDLFLLEERKSVRNTGVNSTLSSNSILKKKLLKTNRVEFANDGVCSALATRFLDNILQLCLLRDLKNSLVAIRLLKLILKFGYTNPSHSIPTVIALFASTSQYIRHVAYELLEDLFEKYECLVFSSLSRGVTKAIHYSIHTDEKYYYKHDHFLSLLEKLCGTGKKNGPKFFKVLKRIMQSYLDDITDLTSTNSSVQKSIFVLCTNISNITFVSQYDLVSLLKTIDLTTDRLKEVIMDEIGDNVSSLSVSEEKLSGIILIQLSLQDLGTYLLHLYGLRDDVLLLDIVEESELKNKQLPAKKPDISKFSAQLENIEQYSSNGKLLTYFRKHVKDT
